The values that follow come from the supplement of paper PMC10338343.

± gives the standard deviation. This is a selection; strong and weak results do not stand in their true shares.

This assay has as its system MIWI (PIWIL1) piRISC loaded with piRNA #1 (30 nt). The assay is described as follows: pre-steady-state target cleavage rate (min^-1); MIWI and MILI are mouse PIWI proteins and EfPiwi is from a freshwater sponge; tags in brackets are library labels; higher = faster piRNA-guided slicing of the target. To be noted: guide: piRNA #1 5'p-UGAGGUAGUAGGUUGUAUAGUAUCCAGAGG; auxiliary factor: 500 nM mouse GTSF1. The method in brief:
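Using HEPES–potassium acetate buffer at 33 °C, 1 nM active affinity-purified piRISC with a single synthetic guide was mixed with 0.1 nM transcribed, DNA-blocked target RNA library for 0–8 or 0–960 min, with or without 500 nM GTSF1 partner protein. Uncleaved targets were sequenced and normalised to depth and to weakly complementary targets, and three trials were pooled with k3 capped at 0.0001 min^-1. A burst-and-steady-state fit gave the pre-steady-state cleavage rate.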
Consider GGAGAGGAUACUAAACAACCUUCUACCUCA, for which the “pre-steady-state target cleavage rate” value is 0.484 ± 0.025. In the case of CCUCUGGAUACAAUACAACCUACUACCUGA, the “pre-steady-state target cleavage rate” value amounted to 0.657 ± 0.085. In the case of CCACUGGAUACUAUACUACCUACUACCUCA, the “pre-steady-state target cleavage rate” value amounted to 1.88 ± 0.13.

On to GGUCUCGAUACUAUACAAGCUACUACCUCA, for which the “pre-steady-state target cleavage rate” value was 1.11 ± 0.052. Under GGAGACCUUACUUUACAUCCUACUACCUCA stands 0.518 ± 0.048; under GCUCUGGAUACUUUACUACCUACUACCUCA, 1.36 ± 0.11; under GGAGUGGAACUAUACAACCUACUACCUCA, 1.38 ± 0.096.

For GGUCUGGAUACUAUACAAGCUAGUACCUCA, the “pre-steady-state target cleavage rate” value was 0.306 ± 0.062. Under GGAGUGGAUACUAUUCAACCUACUAGCUCA stands 0.0654 ± 0.015; under GGACAGGAUACUAUACAACCUACUACCACA, 0.722 ± 0.062.

GGAGUGGAUACUAUACAACCUAGUACCUGA: the “pre-steady-state target cleavage rate” value turned out to be 0.00324 ± 0.0024. The result for GGAGACCUAUGAAUACCAACCUACUACCUCA reads 0.0073 ± 0.0018; that for GGAGAGGAUACUAUGACAACCUACUACCUCA, 1.09 ± 0.054. The result for GGACUGGUUACUAUACAACCUACUAGCUCA reads 0.0585 ± 0.015; that for GGAGACGAUACUAAACAACCAACUACCUCA, 0.105 ± 0.012; that for GGAGACCUUACUAUUCUACCUACUACCUCA, 0.0666 ± 0.0083.
